Reference: the BET-seq Pho4 binding data (Le et al. 2018)
This is one part of the list. Values were computed here from the reads of four pooled replicates and scatter widely.

The sequences below were run against T1, Pho4 (S. cerevisiae) (UniProt P07270) (assay: relative binding free energy (BET-seq); higher = weaker binding). Settings: reference: library average.
T1 sequence: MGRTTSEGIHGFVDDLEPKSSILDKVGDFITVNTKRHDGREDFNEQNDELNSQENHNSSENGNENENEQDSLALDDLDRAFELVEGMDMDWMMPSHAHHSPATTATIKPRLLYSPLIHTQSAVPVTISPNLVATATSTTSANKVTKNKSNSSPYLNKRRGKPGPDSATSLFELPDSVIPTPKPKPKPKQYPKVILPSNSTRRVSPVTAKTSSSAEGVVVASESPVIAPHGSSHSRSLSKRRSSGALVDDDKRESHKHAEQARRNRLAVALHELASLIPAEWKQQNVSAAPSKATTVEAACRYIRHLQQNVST

Row | Sequence | relative binding free energy
1 | ACGGGCACGTGGAATG | -0.09 kcal/mol
2 | ATCAGCACGTGGTTGA | -0.1 kcal/mol
3 | GTTTCCACGTGATGGG | 0.28 kcal/mol
4 | TTTATCACGTGAGCTT | 0.31 kcal/mol
5 | GCAGGCACGTGTGGTT | 0.01 kcal/mol
6 | AGATGCACGTGGATGG | -0.03 kcal/mol
7 | TTTTGCACGTGTTTTG | 0.13 kcal/mol
8 | ATATGCACGTGATTTT | 0.09 kcal/mol
9 | TTTTTCACGTGGTCGC | 0.3 kcal/mol
10 | ATTGACACGTGACGGG | 0.13 kcal/mol
11 | CAAGTCACGTGTGGTG | 0.05 kcal/mol
12 | CGGTGCACGTGCGGGT | -0.13 kcal/mol
13 | TGGCTCACGTGATTGG | 0.26 kcal/mol
14 | GATTACACGTGGGCGT | -0.01 kcal/mol
15 | CATGGCACGTGGTGTG | -0.17 kcal/mol
16 | ATGGACACGTGCATGG | -0.03 kcal/mol
17 | GGGTGCACGTGGGCTA | -0.16 kcal/mol
18 | TTTTTCACGTGTCGAA | 0.17 kcal/mol
19 | TCAAGCACGTGAGAGG | 0.2 kcal/mol
20 | AGAGTCACGTGGTCTT | 0.1 kcal/mol
21 | CGGATCACGTGGTTCG | 0.26 kcal/mol
22 | TTCTTCACGTGTGGGA | 0.26 kcal/mol
23 | TGGATCACGTGGTCGT | 0.13 kcal/mol

Row | Sequence | relative binding free energy
24 | AGTGACACGTGTGGTC | 0.03 kcal/mol
25 | AAGGGCACGTGGGCGA | -0.29 kcal/mol
26 | TGCGTCACGTGTGGAA | 0.1 kcal/mol
27 | CATTTCACGTGGTCGG | 0.18 kcal/mol
28 | GGGAACACGTGTATGT | 0.09 kcal/mol
29 | GTGGGCACGTGCAGGG | -0.01 kcal/mol
30 | GGATTCACGTGTATGA | 0.4 kcal/mol
31 | AGGGGCACGTGCACGG | -0.15 kcal/mol
32 | TTGTGCACGTGCATCG | 0.04 kcal/mol
33 | GGTTACACGTGAAAAT | 0.51 kcal/mol
34 | TGATGCACGTGTAGAA | 0.18 kcal/mol
35 | ATGTTCACGTGTTCGT | 0.24 kcal/mol
36 | AACGTCACGTGGAGGG | -0.05 kcal/mol
37 | TCTGTCACGTGTAGGT | -0.01 kcal/mol
38 | AGGTGCACGTGATGCA | 0.02 kcal/mol
39 | CGTGGCACGTGAGGAC | 0.16 kcal/mol
40 | TGCTGCACGTGGGTGC | -0.19 kcal/mol
41 | GTAAACACGTGCTGGG | 0.16 kcal/mol
42 | GTGGGCACGTGTGTCA | -0.02 kcal/mol
43 | AGTGGCACGTGAGTAA | 0.03 kcal/mol
44 | GATGGCACGTGAAGGC | 0.22 kcal/mol
45 | ATTTGCACGTGTGGTT | 0.11 kcal/mol
46 | GTTAGCACGTGTATAA | -0.07 kcal/mol

Row | Sequence | relative binding free energy
47 | GGCGGCACGTGGTGTC | 0 kcal/mol
48 | TGTACCACGTGATGGA | 0.08 kcal/mol
49 | AGATACACGTGGCTTG | -0.01 kcal/mol
50 | CTTTACACGTGGTTTT | 0.02 kcal/mol
51 | GTGGTCACGTGCGTCT | -0.04 kcal/mol
52 | GGTCACACGTGAGGAT | 0.28 kcal/mol
53 | GGGTACACGTGACGTT | 0.29 kcal/mol
54 | TTGCCCACGTGGGGGA | -0.33 kcal/mol
55 | TGTTGCACGTGGGCAG | -0.27 kcal/mol
56 | GTAGTCACGTGTTTAT | 0.15 kcal/mol
57 | TTGCACACGTGTTTGA | 0.07 kcal/mol
58 | TGGGACACGTGCGTTA | -0.14 kcal/mol
59 | TATTGCACGTGGGCCG | -0.11 kcal/mol
60 | GGACACACGTGGGGAG | -0.05 kcal/mol
61 | TCTGGCACGTGCTGGG | 0 kcal/mol
62 | AGACGCACGTGGGGGG | -0.29 kcal/mol
63 | GGTGTCACGTGATGAC | 0.17 kcal/mol
64 | TTGTACACGTGACTGG | 0.17 kcal/mol
65 | TATGGCACGTGTTGCT | -0.19 kcal/mol
66 | TAGTACACGTGGAGTG | 0.02 kcal/mol
67 | TGTTCCACGTGTGTAG | 0.07 kcal/mol
68 | ATTGACACGTGTGCGA | -0.03 kcal/mol
69 | TGAGTCACGTGTTATC | 0.22 kcal/mol

Row | Sequence | relative binding free energy
70 | AATGGCACGTGGATTA | -0.05 kcal/mol
71 | CGGTGCACGTGCAAGG | 0.09 kcal/mol
72 | CATGCCACGTGAGGGT | 0.06 kcal/mol
73 | TGGGGCACGTGCGTCT | -0.24 kcal/mol
74 | GATGACACGTGAGTTG | 0.36 kcal/mol
75 | GGGGACACGTGGATTT | 0.17 kcal/mol
76 | ACGGTCACGTGAGTGT | 0.35 kcal/mol
77 | TTGGCCACGTGGGATT | -0.05 kcal/mol
78 | GTTTTCACGTGTACGC | 0.41 kcal/mol
79 | AAGTTCACGTGAGTAG | 0.39 kcal/mol
80 | TTTGACACGTGAGTGG | 0.32 kcal/mol
81 | GATAACACGTGGTTGT | 0.01 kcal/mol
82 | GAGTACACGTGGATTG | 0.06 kcal/mol
83 | TATTACACGTGGGTTT | 0.01 kcal/mol
84 | TTTAGCACGTGCAGGA | -0.05 kcal/mol
85 | GTGAGCACGTGTATTG | -0.16 kcal/mol
86 | AGTATCACGTGGTAAG | 0.11 kcal/mol
87 | ATCGACACGTGGGGTT | -0.19 kcal/mol
88 | ATTGGCACGTGTAAAA | 0.15 kcal/mol
89 | TGTTTCACGTGAATAT | 0.31 kcal/mol
90 | AGAGTCACGTGGTTCA | 0.08 kcal/mol
91 | TTGAGCACGTGTTAGT | 0.01 kcal/mol
92 | GGAGGCACGTGGGTGC | -0.23 kcal/mol

Row | Sequence | relative binding free energy
93 | CCGGGCACGTGGATGG | -0.03 kcal/mol
94 | GGAGGCACGTGTGAGC | 0.01 kcal/mol
95 | AAATTCACGTGCTTGT | 0.21 kcal/mol
96 | AGGCGCACGTGGATGG | -0.1 kcal/mol
97 | GTCGTCACGTGTTTTT | 0.25 kcal/mol
98 | ATATGCACGTGGTAAG | -0.24 kcal/mol
99 | ATTGGCACGTGAATTA | 0.04 kcal/mol
100 | TAGGTCACGTGTCGTT | 0.18 kcal/mol
101 | CGAGTCACGTGGGGTG | -0.07 kcal/mol
102 | ATATTCACGTGTACGG | 0.29 kcal/mol
103 | TGTGACACGTGGATGT | -0.07 kcal/mol
104 | AGGATCACGTGGTGCT | 0.06 kcal/mol
105 | TAGGGCACGTGTTTGA | -0.05 kcal/mol
106 | AAAGGCACGTGTGGTG | -0.09 kcal/mol
107 | GAGTACACGTGATATT | 0.24 kcal/mol
108 | TAACGCACGTGGTGAA | 0.01 kcal/mol
109 | TATAGCACGTGGGTCT | -0.2 kcal/mol
110 | GAGGTCACGTGCGTTG | 0.15 kcal/mol
111 | CTGGACACGTGGGAGT | 0.09 kcal/mol
112 | GTGGACACGTGGTTAT | -0.04 kcal/mol
113 | AGGGCCACGTGTCTGG | -0.18 kcal/mol
114 | GTTGGCACGTGCTGTG | -0.2 kcal/mol
115 | GTGGTCACGTGCCGGG | 0.06 kcal/mol
